{"source": "the supplement of paper PMC3724861", "note": "The list shows a part of the results."}
{"test_system": "T1, Caupolican (Caup) homeodomain DNA-binding domain", "T1 sequence": "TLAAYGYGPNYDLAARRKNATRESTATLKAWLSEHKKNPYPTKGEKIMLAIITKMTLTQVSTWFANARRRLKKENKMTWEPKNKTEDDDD", "test": "PBM E-score (8-mer, recovered from the published 9-mer minima) (E-score (dimensionless, -0.5 to 0.5)); Drosophila protein; higher = stronger relative binding preference, active = 0.31 or more", "protocol": "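Protein binding microarray (PBM): in vitro transcribed/translated Caupolican (Caup) homeodomain DNA-binding domain (residues 214-303) applied at 100 nM to a universal 8-mer PBM array (Agilent AMADID 015681). The 8-mer enrichment score (E-score, range -0.5 to 0.5) was computed, and each 9-mer score is the minimum E-score of its two constituent 8-mers. The E-score is the same for a 9-mer and its reverse complement; 0.31 is the stated binding threshold.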"}
{"sequence": "GAGCAAGC", "PBM E-score": "inactive: -0.118"}
{"sequence": "AACTACAG", "PBM E-score": "inactive: 0.177"}
{"sequence": "ACTTCTTC", "PBM E-score": "inactive: -0.00485"}
{"sequence": "AGGGGGAA", "PBM E-score": "inactive: -0.219"}
{"sequence": "AATCTAGT", "PBM E-score": "inactive: 0.0691"}
{"sequence": "CACCAGGA", "PBM E-score": "inactive: -0.0674"}
{"sequence": "CTCAGCAG", "PBM E-score": "inactive: -0.0586"}
{"sequence": "CGTTCACA", "PBM E-score": "inactive: 0.138"}
{"sequence": "CCGAACAA", "PBM E-score": "inactive: 0.242"}
{"sequence": "AAGGTTGA", "PBM E-score": "inactive: 0.0447"}
{"sequence": "CGCCCTCC", "PBM E-score": "inactive: -0.285"}
{"sequence": "AGCGGGCC", "PBM E-score": "inactive: -0.23"}
{"sequence": "GCCAGGGC", "PBM E-score": "inactive: -0.227"}
{"sequence": "AAGGACTA", "PBM E-score": "inactive: 0.0433"}
{"sequence": "CTCTGCCC", "PBM E-score": "inactive: -0.181"}
{"sequence": "TACGGTGA", "PBM E-score": "inactive: 0.0565"}
{"sequence": "CGAGGGGC", "PBM E-score": "inactive: -0.252"}
{"sequence": "ATTAGTTC", "PBM E-score": "inactive: 0.154"}
{"sequence": "ACCTTTCC", "PBM E-score": "inactive: -0.00757"}
{"sequence": "CCCACTCG", "PBM E-score": "inactive: -0.191"}
{"sequence": "CAAACTCA", "PBM E-score": "inactive: 0.0685"}
{"sequence": "ACCGTCAG", "PBM E-score": "inactive: -0.217"}
{"sequence": "CGCCAATC", "PBM E-score": "inactive: -0.0987"}
{"sequence": "TAGGCTGA", "PBM E-score": "inactive: -0.0285"}
{"sequence": "AAAAGTTG", "PBM E-score": "inactive: 0.0596"}
{"sequence": "TAGGGCCA", "PBM E-score": "inactive: -0.205"}
{"sequence": "CATATATG", "PBM E-score": "inactive: 0.163"}
{"sequence": "CGCAGGAC", "PBM E-score": "inactive: -0.0855"}
{"sequence": "CAGCCGGG", "PBM E-score": "inactive: -0.15"}
{"sequence": "GTGACGGA", "PBM E-score": "inactive: -0.0386"}
{"sequence": "ATACAGCA", "PBM E-score": "≥ 0.201"}
{"sequence": "CGCTCTAA", "PBM E-score": "inactive: -0.103"}
{"sequence": "GACGAGAC", "PBM E-score": "inactive: -0.00613"}
{"sequence": "AATGTCAT", "PBM E-score": "inactive: 0.242"}
{"sequence": "AAAAGACT", "PBM E-score": "inactive: -0.0343"}
{"sequence": "GGCCCTGA", "PBM E-score": "inactive: -0.113"}
{"sequence": "TATGTTAA", "PBM E-score": "active: 0.314"}
{"sequence": "CGCGACTA", "PBM E-score": "inactive: -0.0384"}
{"sequence": "ATGCTCCC", "PBM E-score": "inactive: -0.0751"}
{"sequence": "GTTTTCCA", "PBM E-score": "inactive: 0.163"}
{"sequence": "TAGAGTCA", "PBM E-score": "inactive: -0.00394"}
{"sequence": "CAAGGAAA", "PBM E-score": "inactive: -0.0152"}
{"sequence": "ACTAGCGG", "PBM E-score": "inactive: -0.0634"}
{"sequence": "GGTGAAGA", "PBM E-score": "inactive: -0.15"}
{"sequence": "ATCGGACG", "PBM E-score": "inactive: 0.0109"}
{"sequence": "CTACAACA", "PBM E-score": "active: 0.332"}
{"sequence": "ACTATTGC", "PBM E-score": "inactive: 0.0955"}
{"sequence": "AAGTGAAA", "PBM E-score": "inactive: 0.0805"}
{"sequence": "GCGCGCCC", "PBM E-score": "inactive: -0.265"}
{"sequence": "GCGCACTA", "PBM E-score": "inactive: -0.103"}
{"sequence": "CCATGAAG", "PBM E-score": "inactive: -0.0368"}
{"sequence": "ATAGACGA", "PBM E-score": "inactive: 0.0964"}
{"sequence": "ATCAGCTA", "PBM E-score": "inactive: 0.0859"}
{"sequence": "AGGACCTG", "PBM E-score": "inactive: -0.102"}
{"sequence": "CGCTCACA", "PBM E-score": "inactive: -0.08"}
{"sequence": "AGTTCAGA", "PBM E-score": "inactive: 0.0135"}
{"sequence": "CTAGCCCA", "PBM E-score": "inactive: -0.207"}
{"sequence": "CTGGCGGA", "PBM E-score": "inactive: -0.148"}
{"sequence": "CGATGACA", "PBM E-score": "inactive: 0.278"}
{"sequence": "GAAACATA", "PBM E-score": "inactive: 0.258"}
{"sequence": "AGGATGTC", "PBM E-score": "inactive: 0.259"}
{"sequence": "ACAATAGC", "PBM E-score": "inactive: 0.0519"}
{"sequence": "GTGCGGCA", "PBM E-score": "inactive: -0.195"}
{"sequence": "ACTTAAGA", "PBM E-score": "inactive: 0.0751"}
{"sequence": "CCGTTTGA", "PBM E-score": "inactive: -0.168"}
{"sequence": "CCGTCTGA", "PBM E-score": "inactive: -0.102"}
{"sequence": "GGAACAAC", "PBM E-score": "inactive: 0.196"}
{"sequence": "ACGTTGGG", "PBM E-score": "inactive: -0.0775"}
{"sequence": "ATCCTGCC", "PBM E-score": "inactive: -0.0993"}
{"sequence": "GCTTACAC", "PBM E-score": "inactive: 0.169"}
{"sequence": "CCGCTCAC", "PBM E-score": "inactive: -0.215"}
{"sequence": "GGAGAGCC", "PBM E-score": "inactive: -0.174"}
{"sequence": "AACGTGTC", "PBM E-score": "inactive: 0.257"}
{"sequence": "GAGGTAAA", "PBM E-score": "inactive: 0.0463"}
{"sequence": "GAGGGAAC", "PBM E-score": "inactive: -0.204"}
{"sequence": "ACGGTATA", "PBM E-score": "inactive: -0.0223"}
{"sequence": "CCGTAACG", "PBM E-score": "inactive: -0.1"}
{"sequence": "TCAGGAGA", "PBM E-score": "inactive: -0.0246"}
{"sequence": "ATGACAAC", "PBM E-score": "active: 0.375"}
{"sequence": "GCTCAACA", "PBM E-score": "inactive: 0.0489"}
{"sequence": "AAGCGACT", "PBM E-score": "inactive: 0.013"}
{"sequence": "GTGGCGAA", "PBM E-score": "inactive: -0.0979"}
{"sequence": "ACAGTCGT", "PBM E-score": "≥ 0.0234"}
{"sequence": "GAACAGCA", "PBM E-score": "≥ 0.189"}
{"sequence": "CCGAGGAC", "PBM E-score": "inactive: -0.0504"}
{"sequence": "GAAACGTA", "PBM E-score": "inactive: 0.0527"}
{"sequence": "CGCGGCAC", "PBM E-score": "inactive: -0.227"}
{"sequence": "ACTTGCCT", "PBM E-score": "inactive: 0.0567"}
{"sequence": "CACGAAGC", "PBM E-score": "inactive: -0.104"}
{"sequence": "GATGCGAC", "PBM E-score": "inactive: -0.0569"}
{"sequence": "GTTTCCCA", "PBM E-score": "inactive: -0.0325"}
{"sequence": "AAAATTCC", "PBM E-score": "inactive: -0.0299"}
{"sequence": "CCGACTTC", "PBM E-score": "inactive: -0.148"}
{"sequence": "AGTTCCGA", "PBM E-score": "inactive: -0.0262"}
{"sequence": "ACTTCGTC", "PBM E-score": "inactive: -0.0453"}
{"sequence": "GCATTTGA", "PBM E-score": "inactive: -0.06"}
{"sequence": "ACGGGGTA", "PBM E-score": "inactive: -0.0892"}
{"sequence": "AAGACTCT", "PBM E-score": "≥ 0.0253"}
{"sequence": "GGTTGTCA", "PBM E-score": "active: 0.331"}
{"sequence": "AGGACCTC", "PBM E-score": "≥ -0.0582"}
{"sequence": "TGCATAAA", "PBM E-score": "inactive: 0.0364"}
{"sequence": "ACAATACT", "PBM E-score": "≥ 0.277"}
{"sequence": "AAGCTTCA", "PBM E-score": "inactive: -0.0747"}
{"sequence": "CTAGGACA", "PBM E-score": "inactive: 0.241"}
{"sequence": "CGAGTGTA", "PBM E-score": "inactive: 0.0944"}
{"sequence": "CGCGAGTC", "PBM E-score": "inactive: -0.104"}
{"sequence": "ACACGGAT", "PBM E-score": "active: 0.339"}
{"sequence": "CCTATAGG", "PBM E-score": "inactive: -0.258"}
{"sequence": "CTTGCTGA", "PBM E-score": "inactive: -0.0673"}
{"sequence": "CACCGCCC", "PBM E-score": "inactive: -0.144"}
{"sequence": "GTAAGGGA", "PBM E-score": "inactive: 0.049"}
{"sequence": "AAACGGGT", "PBM E-score": "inactive: 0.00066"}
{"sequence": "GCAAACCC", "PBM E-score": "inactive: -0.106"}
{"sequence": "ACGACATA", "PBM E-score": "inactive: 0.299"}
{"sequence": "AGCAGCGA", "PBM E-score": "inactive: -0.00903"}
{"sequence": "AACGTTGC", "PBM E-score": "inactive: -0.0721"}
{"sequence": "CTTAATCA", "PBM E-score": "inactive: 0.013"}
{"sequence": "AGGCTCCG", "PBM E-score": "inactive: -0.182"}
{"sequence": "CCGGCAGC", "PBM E-score": "inactive: -0.216"}
{"sequence": "ATACACAA", "PBM E-score": "active: ≥ 0.341"}
{"sequence": "AAACGGGG", "PBM E-score": "inactive: -0.133"}
{"sequence": "GCTGTAAA", "PBM E-score": "inactive: 0.128"}
{"sequence": "ATCGCAGC", "PBM E-score": "inactive: -0.0341"}
{"sequence": "CGTCTGGC", "PBM E-score": "inactive: -0.112"}
{"sequence": "CTACGCAG", "PBM E-score": "inactive: -0.00799"}
{"sequence": "TAGAAACA", "PBM E-score": "inactive: 0.223"}
{"sequence": "GATATTGA", "PBM E-score": "inactive: 0.0675"}
{"sequence": "TCGAGTCA", "PBM E-score": "inactive: -0.006"}
{"sequence": "CACCAACA", "PBM E-score": "inactive: 0.0522"}
{"sequence": "AAGAACTA", "PBM E-score": "inactive: 0.0856"}
{"sequence": "CATCTGTA", "PBM E-score": "inactive: 0.204"}
{"sequence": "AGTGGCTC", "PBM E-score": "inactive: -0.0941"}
{"sequence": "AGGTACAG", "PBM E-score": "inactive: 0.146"}
{"sequence": "TCACAACA", "PBM E-score": "≥ 0.29"}
{"sequence": "GTCGCCAA", "PBM E-score": "inactive: -0.0201"}
{"sequence": "GAATTTAA", "PBM E-score": "inactive: 0.0882"}
{"sequence": "CCGCCTGC", "PBM E-score": "inactive: -0.291"}
{"sequence": "CCACTCAA", "PBM E-score": "≥ 0.0936"}
{"sequence": "ATGTTGGG", "PBM E-score": "inactive: 0.119"}
{"sequence": "CATGGCGA", "PBM E-score": "inactive: -0.0267"}
{"sequence": "CTACCACA", "PBM E-score": "inactive: 0.0978"}
{"sequence": "ATATGACA", "PBM E-score": "active: 0.336"}
{"sequence": "CATAAAAC", "PBM E-score": "inactive: 0.107"}
{"sequence": "CCAGCTGA", "PBM E-score": "inactive: -0.0549"}
